# Variants at the floor of the assay are shown more often than the library holds them.
# B1: TPR 5TU (parent)
# chain: GGAUCUUCUCGAUCUAACAAAAAAGACAAAUCUGCCACAAAGCUUGAGAGCAUCUUCGGAUGCAGAGGCGGCAGCCUUCGGUGGCGCGAUAGCGCCAACGUUCUCAACUAUGACACGCAAAACGCGUGCUCCGUUGAAUGGAGUUUAUCAUG
# Variants of: B1
# Assay: polymerase ribozyme fitness, log enrichment relative to wild type (log ratio); higher = more active; in vitro selection for triplet polymerase activity
# Method in brief: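 Each subunit of a heterodimeric triplet polymerase ribozyme was represented by a PCR-built, transcribed mutant library that underwent triplicate single-round in vitro selection with frozen incubation at −7 °C. Extended constructs were recovered by gel excision, streptavidin-bead capture and RT-PCR, and Illumina sequencing of input and output libraries kept genotypes with ≥10 input reads and ≥1 read per output. Fitness is the logarithm of genotype enrichment relative to wild-type enrichment, from inverse-variance-weighted replicate averages, with a logarithm base of 2.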
row,Variant,polymerase ribozyme fitness (log ratio)
1,A19G A98U A115U A120U,-2.62
2,A19U A40C A91U C95G,≤ -4.2
3,A19C U56C C96U G133C,-2.22
4,A19U C32U C38U G65A U90A C95A C132G,≤ -4.2
5,A20U C35U G81U C93A G94U,≤ -4.2
6,A19G G126C,0.693
7,A20C U44A C54A G94C A107C G141A G143U,≤ -4.2
8,A19C A24U C27G C76G U148C C149U,≤ -4.2
9,A19C G48C C51A G86U G128U,≤ -4.2
10,A20C C87A C108U A120C,≤ -4.2
11,A19C A29G A37C C51G C93U,≤ -4.2
12,A19U U55A G59U,0.528
13,A19C G58C C95U G140U,-3.88
14,A20C U33G A37C A52C C79U C87G A89C A106G U109G C118U,≤ -4.2
15,A19G A66G,≤ -4.2
16,A20G C85U G94U C95G C125U,-3.59
17,A20U A41G G70C C103A,≤ -4.2
18,A20C A28G U31A U53G C87U U134A,≤ -4.2
19,A20C G42A C54U C75G G86U A113G A115G,≤ -4.2
20,A19U A49C A91G G143C,≤ -4.2
21,A19C C51A C75A C93A G117C,≤ -4.2
22,A19U G59A G86U A91C C93U A142U U144G,≤ -4.2
23,A20G C93A C103G,≤ -4.2
24,A19U G58A C105G,-2.43

row,Variant,polymerase ribozyme fitness (log ratio)
1,A20C C85U A89G A106G,-2.07
2,A20U A26U A52C C57U A60G C76A G88A C118U,≤ -4.2
3,A19C G81U G94U U104G U130A G136U,≤ -4.2
4,A20U A107U A122U,≤ -4.2
5,A19U A40G U61A C96G G133C U135A,≤ -4.2
6,A20G C54U G83U A91U G92A A98C,≤ -4.2
7,A20C C79A G94C,≤ -4.2
8,A19U U44A C95U C99G,≤ -4.2
9,A19C C85G C99G G133U,≤ -4.2
10,A20U A28U G42C G86U C93A C114U,-4.17
11,A20U A47C U55A C57U G71A A89G U90G C103A C132A G143C,≤ -4.2
12,A20G G25A U53A A66G C87A C116A,≤ -4.2
13,A19G A39U C57U C63U G94C U144G U145C C149A U151C,≤ -4.2
14,A19C A39C U53A G94U U104C A115G,≤ -4.2
15,A20C C85A A107U,≤ -4.2
16,A19G A30G C38U C85G A89U U130G,≤ -4.2
17,A20G A73G C85A,-2.05
18,A20U A29U C43U A47G A49C C54G C95U C105A U145G A147G,≤ -4.2
19,A19U U31A C93U C108A G141U,≤ -4.2
20,A20G A21C U31C C103A U144G,-1.73
21,A19U A20U A52C U55A A91U C108U,≤ -4.2
22,A20C G46A C69G G94A,-2.22
23,A19C A52C A89C U135G,≤ -4.2
24,A20C A73G C87G C114U G141A,≤ -4.2

row,Variant,polymerase ribozyme fitness (log ratio)
1,A20C A29U A47C G50C G70C G84A U151G,≤ -4.2
2,A19C A26C,-1.76
3,A19G C43G C51G G68A G80A,≤ -4.2
4,A19G A23G G67C C87U,≤ -4.2
5,A19G C32A A40C U61A C93G A110G,≤ -4.2
6,A19C C57U G94U,-0.554
7,A19C A26G A30C U53G C96G U139A,≤ -4.2
8,A19C C93G,-2.84
9,A19G G25U A110U,≤ -4.2
10,A19U C87G,-4.17
11,A20G U61A G112A U127A A137U,≤ -4.2
12,A19U A24C A29U C57A G86A A98C C114G C132U G136A,≤ -4.2
13,A19U C51U C57A A64U G94A A147C,≤ -4.2
14,A19U C93G,≤ -4.2
15,A20G C57U G62C G136U,-3.44
16,A19C U53A C85G C93A C95G C116A A142G,≤ -4.2
17,A20C C35A C95U A120C C125A U148G,≤ -4.2
18,A20G C51U,-0.842
19,A20C C35U U61G U77C C95A C99U A121G,≤ -4.2
20,A19G U33G A60C G62A C87U,≤ -4.2
21,A19U A21U G68C G92A,≤ -4.2
22,A20C A39C A73G G83A A91U,≤ -4.2
23,A20G C38U A47C A60G C93U A106G G128U,≤ -4.2
24,A20U A26C A37U C69A A91U C93A,≤ -4.2

row,Variant,polymerase ribozyme fitness (log ratio)
1,A19C G117C,0.678
2,A20U C35A A41C C95U U145A,≤ -4.2
3,A20C A40G U61G C72G G81A G141U A150C,≤ -4.2
4,A19C A24G C32U C38U G59A C85A G133U U145C,≤ -4.2
5,A20C A22U U31G G92A C95A G141U,≤ -4.2
6,A19U A20U C85U A142G,-2.89
7,A20G U55A U56A A73G U101A A107U,≤ -4.2
8,A19C C93A G94U G126U,≤ -4.2
9,A20U A21C A23U G25U C32G G48A A66C C79G G128U U148G,≤ -4.2
10,A19C A29U C85U,≤ -4.2
11,A19G U55A U104G C114G C125A G140U,≤ -4.2
12,A20C U53A U56A G70A C72G C87A G152A,≤ -4.2
13,A19C G34A U77C C87G G92U C96A G152A,≤ -4.2
14,A19U G58A C105A U111G,≤ -4.2
15,A20G A22C A24U G34C C35G A91C C105U,≤ -4.2
16,A19U C51A A89G G100A A115G,≤ -4.2
17,A20C C38U C63G G65C G92C U151A,≤ -4.2
18,A20U C35U C76U C87G G141C U151C,≤ -4.2
19,A19G C35A U56A C57G C79A,≤ -4.2
20,A20U A73G C85G G88U,≤ -4.2
21,A20G U55A G74U C85U A97U,≤ -4.2
22,A20G A22U A40G G48U A73U C85U C116G,≤ -4.2
23,A20C C75U U82C C87U U101G C105U U146G,≤ -4.2
24,A19G A21G C93A C118U,≤ -4.2

row,Variant,polymerase ribozyme fitness (log ratio)
1,A19U A26C A98U U102G,≤ -4.2
2,A19U A47C C93U,-1.1
3,A19U G74C C114U U127G G136A,≤ -4.2
4,A20U A22U A24U A91C A106C,≤ -4.2
5,A19C A60G C79A,≤ -4.2
6,A19U G34U C51U U53C G81A G86U G92A C96U A98G,≤ -4.2
7,A19C C129G U148G,≤ -4.2
8,A19C A66C G94A U134G,≤ -4.2
9,A19G G94A,-1.06
10,A20G C36G G83A A91G A142G,≤ -4.2
11,A19G G83C G84C C95G U102G A107G,≤ -4.2
12,A20G U53A U78G G84U C99U,≤ -4.2
13,A19C U53G C54U C75G G92U A106C U109A,≤ -4.2
14,A19C A41C G48C C87U A91C C123G G133U,≤ -4.2
15,A19C C103A A110U U134A,≤ -4.2
16,A20C A28G U82G G84U A110C,≤ -4.2
17,A19U A26U C27G C69U G84C C132G G143A,≤ -4.2
18,A19U G81A A137G U148C,≤ -4.2
19,A20C U104G A107C U145G,≤ -4.2
20,A19G A28U C99U C108G U130C,≤ -4.2
21,A20U A29U U55A A66C A106U A138U,≤ -4.2
22,A19U C43G C54G A91G,≤ -4.2
23,A20U A26C A40G C87A A91G,≤ -4.2
24,A19U A28G A41U C43A G59U C87A A110U C131G,≤ -4.2

row,Variant,polymerase ribozyme fitness (log ratio)
1,A20U A41U G83U A89C C96G A150U,-2.06
2,A19G G59U,-0.93
3,A20C U82A A150G,-0.662
4,A19U A26G A41U G58C G62A G80C C95U G117U,≤ -4.2
5,A19C A24G G94U C95G,≤ -4.2
6,A20U A39C,-3.84
7,A20C U53A U56A G70A C72G C87A,≤ -4.2
8,A19U A24G C35A C43U U56A U61A A89C U109A A110C G140A,≤ -4.2
9,A19G C76G A89U A91G U134A,≤ -4.2
10,A19G A26C A49C C51G C79A G83A C149A,≤ -4.2
11,A20U A23G C35G C54A A60U G92A A115U,≤ -4.2
12,A20C A91C C95U A115C,≤ -4.2
13,A19U G25U A60G A64U G65U G81A C85U U148G,≤ -4.2
14,A19C C27U A29C A52C G86C A137G G143U,≤ -4.2
15,A19G C35A G42C G68C G92A,≤ -4.2
16,A20C G34C U55A A66G C96U A122C C132U,≤ -4.2
17,A19G U44C U56A C57U C85U C95G,≤ -4.2
18,A19G C38U G50A G86A C105A C116A A121U G141C,≤ -4.2
19,A19C G34A A49G A52U G68U C95U A120U C132U U146A,≤ -4.2
20,A19C C38U C96U A142U,-0.812
21,A19U C85U G86U C93U U130A A138U,≤ -4.2
22,A20U A24G C32G U78A G83C,≤ -4.2
23,A19U C57G,-1.75
24,A19C A37U G70U U144C,≤ -4.2

row,Variant,polymerase ribozyme fitness (log ratio)
1,A20G G80C U82A G100A U135C,≤ -4.2
2,A20G A52U C57A G62U C95A G133C A150U,-1.8
3,A19G C57G G58U G62C C87U G88C A142C,≤ -4.2
4,A19U G59A G83U C95A C132U G136U G141A,≤ -4.2
5,A19C A39U A41C G88U C125G G140U U145C,≤ -4.2
6,A20U A37U C43U U53G A107G G143U,≤ -4.2
7,A19U C27A A91U G94U G126U G141A G143C,≤ -4.2
8,A19U G86A,-2.04
9,A19C U53G C72A C79A U90A C103G G140C,≤ -4.2
10,A19C C36U U61C C132U,≤ -4.2
11,A19G C93A,-3.43
12,A19U U31G U144C,-1.49
13,A19C A52U C87A A97U U127C A142C,≤ -4.2
14,A20C C35U A97G,-0.284
15,A20U A49C C57U A115G,≤ -4.2
16,A19G C93A G140A,≤ -4.2
17,A19G A22U A28U A120G,≤ -4.2
18,A19U A23C C27A C85A,≤ -4.2
19,A20C A29C C35A C87U C118U G140U,≤ -4.2
20,A20G U33C C36A C54U C85A G133A G140C,≤ -4.2
21,A20G C76G G84A A122G,≤ -4.2
22,A19G G68C A89G C108U C114U A150G,≤ -4.2
23,A19G A20G C51G A60G A73G C87A A97U C99G C132A,≤ -4.2
